Experimental data from the supplement of paper PMC9588766.
Structures can show the parent of a compound that is named as a salt. Over roughly 1,900 compounds, “cell viability of compound + 1 nM pemigatinib relative to pemigatinib-only (DMSO) wells” has its median near 0.95; the lowest 2% begin near 0.22. The list shows a part of the results.

Test system: PDC-DUC18828
Assay: cell viability of compound + 1 nM pemigatinib relative to pemigatinib-only (DMSO) wells (fraction); PDC-DUC18828 is a patient-derived cholangiocarcinoma cell line; higher = less growth inhibition
Settings: first compound 1 µM; pemigatinib concentration 1 nM; 72 h
Description: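 Selleck Bioactive library screen in the patient-derived FGFR2 fusion-positive ICC cell line PDC-DUC18828 (500 cells/well). Each compound was tested at 1 uM with 1 nM pemigatinib, in triplicate, for 72 h. Viability was read by CellTiter-Glo and normalised to plate DMSO controls. Value is the paper's averaged normalised viability.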

Question: Which cell viability does the source give for `CN1CCN(C(c2ccccc2)c2ccccc2)CC1` [Cyclizine 2HCl] + CCN1C(=O)N(c2c(F)c(OC)cc(OC)c2F)Cc2cnc3[nH]c(CN4CCOCC4)cc3c21 [pemigatinib] here?
Answer: Its cell viability is 0.971.

Question: Which cell viability does the source give for `O=C(/C=C\n1cnc(-c2cc(C(F)(F)F)cc(C(F)(F)F)c2)n1)N1CC(F)(F)C1` + CCN1C(=O)N(c2c(F)c(OC)cc(OC)c2F)Cc2cnc3[nH]c(CN4CCOCC4)cc3c21 [pemigatinib] here?
Answer: The cell viability was 0.612.

Question: Which cell viability does the source give for `CC(C)(C)[N+]([O-])=Cc1ccc(S(=O)(=O)O)cc1S(=O)(=O)O` + CCN1C(=O)N(c2c(F)c(OC)cc(OC)c2F)Cc2cnc3[nH]c(CN4CCOCC4)cc3c21 [pemigatinib] here?
Answer: Its cell viability is 0.904.

Question: With `C[C@]12CC[C@@H]3c4ccc(OC(=O)c5ccccc5)cc4CC[C@H]3[C@@H]1CC[C@@H]2O` [Estradiol Benzoate] + CCN1C(=O)N(c2c(F)c(OC)cc(OC)c2F)Cc2cnc3[nH]c(CN4CCOCC4)cc3c21 [pemigatinib] as the compound, how does the cell viability read?
Answer: The cell viability was 0.928.

Question: Which cell viability does the source give for `Cc1ccc(F)c(NC(=O)Nc2ccc(-c3cccc4[nH]nc(N)c34)cc2)c1` [Linifanib (ABT-869)] + CCN1C(=O)N(c2c(F)c(OC)cc(OC)c2F)Cc2cnc3[nH]c(CN4CCOCC4)cc3c21 [pemigatinib] here?
Answer: Its cell viability is 0.959.

Question: With `Cc1cccc(CC(=O)N2CCc3c2ccc(-c2cn(C)c4ncnc(N)c24)c3F)n1` + CCN1C(=O)N(c2c(F)c(OC)cc(OC)c2F)Cc2cnc3[nH]c(CN4CCOCC4)cc3c21 [pemigatinib] as the compound, how does the cell viability read?
Answer: Its cell viability is 0.949.

Question: How did the cell viability turn out when `COc1ccc(-n2c(SCCCN3C(=O)c4cccc5cccc(c45)C3=O)nnc2-c2ccncc2)cc1` + CCN1C(=O)N(c2c(F)c(OC)cc(OC)c2F)Cc2cnc3[nH]c(CN4CCOCC4)cc3c21 [pemigatinib] was run?
Answer: Its cell viability is 0.799.

Question: `Cc1c(-c2cnccn2)ssc1=S` [Oltipraz] + CCN1C(=O)N(c2c(F)c(OC)cc(OC)c2F)Cc2cnc3[nH]c(CN4CCOCC4)cc3c21 [pemigatinib] was tested. Which cell viability did it give?
Answer: Its cell viability is 0.898.

Question: With `CC(C)(CO)C(O)C(=O)NCCC(=O)O` [Calcium D-Panthotenate] + CCN1C(=O)N(c2c(F)c(OC)cc(OC)c2F)Cc2cnc3[nH]c(CN4CCOCC4)cc3c21 [pemigatinib] as the compound, how does the cell viability read?
Answer: The cell viability was 1.

Question: `CCN1CCN(Cc2ccc(C(=O)Nc3ccc(C)c(Oc4ccc5c(c4)CC(=O)N5)c3)cc2C(F)(F)F)CC1` + CCN1C(=O)N(c2c(F)c(OC)cc(OC)c2F)Cc2cnc3[nH]c(CN4CCOCC4)cc3c21 [pemigatinib] was tested. Which cell viability did it give?
Answer: Its cell viability is 0.952.

Question: With `N[C@@H](Cc1cc(I)c(Oc2ccc(O)c(I)c2)c(I)c1)C(=O)O` [Liothyronine Sodium] + CCN1C(=O)N(c2c(F)c(OC)cc(OC)c2F)Cc2cnc3[nH]c(CN4CCOCC4)cc3c21 [pemigatinib] as the compound, how does the cell viability read?
Answer: The cell viability was 0.984.

Question: Which cell viability does the source give for `CN(C)C(=O)[C@H](O)[C@H](Cc1ccccc1)NC(=O)c1cc2cc(Cl)ccc2[nH]1` + CCN1C(=O)N(c2c(F)c(OC)cc(OC)c2F)Cc2cnc3[nH]c(CN4CCOCC4)cc3c21 [pemigatinib] here?
Answer: The cell viability was 0.957.

Question: How did the cell viability turn out when `O=C(Oc1cc(S(=O)(=O)c2ccccc2)ccc1[N+](=O)[O-])c1ccc(Cl)cc1` + CCN1C(=O)N(c2c(F)c(OC)cc(OC)c2F)Cc2cnc3[nH]c(CN4CCOCC4)cc3c21 [pemigatinib] was run?
Answer: Its cell viability is 0.972.

Question: How did the cell viability turn out when `COc1ccc(C2CC(=O)c3c(O)cc(OC4OC(COC5OC(C)C(O)C(O)C5O)C(O)C(O)C4O)cc3O2)cc1OC` (stereo not drawn) [Methyl-Hesperidin] + CCN1C(=O)N(c2c(F)c(OC)cc(OC)c2F)Cc2cnc3[nH]c(CN4CCOCC4)cc3c21 [pemigatinib] was run?
Answer: The cell viability was 0.932.

Question: With `Cc1cc(CN2CCN(c3c(Br)cnc4nc(-c5ccc(N6CCN(C)CC6)cc5)[nH]c34)CC2)no1` + CCN1C(=O)N(c2c(F)c(OC)cc(OC)c2F)Cc2cnc3[nH]c(CN4CCOCC4)cc3c21 [pemigatinib] as the compound, how does the cell viability read?
Answer: Its cell viability is 0.684.

Question: Which cell viability does the source give for `Cc1ccc(=O)n(-c2ccccc2)c1` [Pirfenidone] + CCN1C(=O)N(c2c(F)c(OC)cc(OC)c2F)Cc2cnc3[nH]c(CN4CCOCC4)cc3c21 [pemigatinib] here?
Answer: Its cell viability is 0.896.

Question: Which cell viability does the source give for `O=C(CCCN1CCN(c2ccccn2)CC1)c1ccc(F)cc1` [Azaperone] + CCN1C(=O)N(c2c(F)c(OC)cc(OC)c2F)Cc2cnc3[nH]c(CN4CCOCC4)cc3c21 [pemigatinib] here?
Answer: The cell viability was 0.96.

Question: With `O=C(Nc1ccncc1)c1cc([N+](=O)[O-])ccc1Cl` + CCN1C(=O)N(c2c(F)c(OC)cc(OC)c2F)Cc2cnc3[nH]c(CN4CCOCC4)cc3c21 [pemigatinib] as the compound, how does the cell viability read?
Answer: Its cell viability is 0.901.

Question: Which cell viability does the source give for `C[C@H](CCC(=O)O)[C@H]1CC[C@H]2[C@@H]3[C@@H](O)C[C@@H]4C[C@H](O)CC[C@]4(C)[C@H]3CC[C@]12C` [Ursodiol] + CCN1C(=O)N(c2c(F)c(OC)cc(OC)c2F)Cc2cnc3[nH]c(CN4CCOCC4)cc3c21 [pemigatinib] here?
Answer: Its cell viability is 0.992.

Question: Which cell viability does the source give for `C=CC(=O)N1C/C(=C\c2ccc([N+](=O)[O-])cc2)C(=O)/C(=C/c2ccc([N+](=O)[O-])cc2)C1` + CCN1C(=O)N(c2c(F)c(OC)cc(OC)c2F)Cc2cnc3[nH]c(CN4CCOCC4)cc3c21 [pemigatinib] here?
Answer: Its cell viability is 0.245.

Question: How did the cell viability turn out when `CNc1nc(Nc2cn(C(C)(C)C#N)nc2C)ncc1C(F)(F)F` + CCN1C(=O)N(c2c(F)c(OC)cc(OC)c2F)Cc2cnc3[nH]c(CN4CCOCC4)cc3c21 [pemigatinib] was run?
Answer: The cell viability was 0.977.

Question: Which cell viability does the source give for `COC(=O)C1=C(C#N)NC(C)=C(C(=O)OC(C)C)C1c1cccc([N+](=O)[O-])c1` (stereo not drawn) [Nilvadipine] + CCN1C(=O)N(c2c(F)c(OC)cc(OC)c2F)Cc2cnc3[nH]c(CN4CCOCC4)cc3c21 [pemigatinib] here?
Answer: The cell viability was 0.986.

Question: Which cell viability does the source give for `COCCCN1CCC(NC(=O)c2cc(Cl)c(N)c3c2OCC3)CC1` [Prucalopride] + CCN1C(=O)N(c2c(F)c(OC)cc(OC)c2F)Cc2cnc3[nH]c(CN4CCOCC4)cc3c21 [pemigatinib] here?
Answer: Its cell viability is 0.9.

Question: Which cell viability does the source give for `COCCCN1CCC(NC(=O)c2cc(Cl)c(N)c3c2OCC3)CC1` [Prucalopride Succinat] + CCN1C(=O)N(c2c(F)c(OC)cc(OC)c2F)Cc2cnc3[nH]c(CN4CCOCC4)cc3c21 [pemigatinib] here?
Answer: The cell viability was 0.938.

Question: How did the cell viability turn out when `CC[C@@H]1C(=O)OC[C@@H]1Cc1cncn1C` [Pilocarpine HCl] + CCN1C(=O)N(c2c(F)c(OC)cc(OC)c2F)Cc2cnc3[nH]c(CN4CCOCC4)cc3c21 [pemigatinib] was run?
Answer: Its cell viability is 0.967.

Question: With `CN1CCc2c(c3ccccc3n2Cc2ccc(C(=O)NO)cc2)C1` [Tubastatin A HCl] + CCN1C(=O)N(c2c(F)c(OC)cc(OC)c2F)Cc2cnc3[nH]c(CN4CCOCC4)cc3c21 [pemigatinib] as the compound, how does the cell viability read?
Answer: The cell viability was 0.992.

Question: For `CN1CCc2c(c3ccccc3n2Cc2ccc(C(=O)NO)cc2)C1` [Tubastatin A] + CCN1C(=O)N(c2c(F)c(OC)cc(OC)c2F)Cc2cnc3[nH]c(CN4CCOCC4)cc3c21 [pemigatinib], which cell viability is on record?
Answer: The cell viability was 0.974.

Question: For `Cc1c(CN2CCN(C(=O)[C@H](C)O)CC2)sc2c(N3CCOCC3)nc(-c3cnc(N)nc3)nc12` + CCN1C(=O)N(c2c(F)c(OC)cc(OC)c2F)Cc2cnc3[nH]c(CN4CCOCC4)cc3c21 [pemigatinib], which cell viability is on record?
Answer: Its cell viability is 0.611.

Question: Which cell viability does the source give for `CC(C)(CO)c1cc2cc(NC(=O)C3(c4ccc5c(c4)OC(F)(F)O5)CC3)c(F)cc2n1C[C@@H](O)CO` + CCN1C(=O)N(c2c(F)c(OC)cc(OC)c2F)Cc2cnc3[nH]c(CN4CCOCC4)cc3c21 [pemigatinib] here?
Answer: Its cell viability is 0.929.

Question: With `COc1cc2nccc(Oc3ccc(NC(=O)NC4CC4)c(Cl)c3)c2cc1C(N)=O` [Lenvatinib (E7080)] + CCN1C(=O)N(c2c(F)c(OC)cc(OC)c2F)Cc2cnc3[nH]c(CN4CCOCC4)cc3c21 [pemigatinib] as the compound, how does the cell viability read?
Answer: The cell viability was 0.963.

Question: For `CCC(C)(Oc1ccc(C2(c3ccc(OC(C)(CC)C(=O)O)cc3)CCCCC2)cc1)C(=O)O` (stereo not drawn) [Clinofibrate] + CCN1C(=O)N(c2c(F)c(OC)cc(OC)c2F)Cc2cnc3[nH]c(CN4CCOCC4)cc3c21 [pemigatinib], which cell viability is on record?
Answer: The cell viability was 1.03.

Question: Which cell viability does the source give for `C[C@@H](O[C@H]1OCCN(Cc2nn(P(=O)(O)O)c(=O)[nH]2)[C@H]1c1ccc(F)cc1)c1cc(C(F)(F)F)cc(C(F)(F)F)c1` [Fosaprepitant dimeglumine salt] + CCN1C(=O)N(c2c(F)c(OC)cc(OC)c2F)Cc2cnc3[nH]c(CN4CCOCC4)cc3c21 [pemigatinib] here?
Answer: Its cell viability is 0.868.

Question: How did the cell viability turn out when `CNc1cc(-c2cccc(Cl)c2Cl)nc(N)n1` + CCN1C(=O)N(c2c(F)c(OC)cc(OC)c2F)Cc2cnc3[nH]c(CN4CCOCC4)cc3c21 [pemigatinib] was run?
Answer: Its cell viability is 0.748.

Question: How did the cell viability turn out when `COc1nc(OCc2cccc(-c3ccccc3)c2C)ccc1CNCCNC(C)=O` [PD-1/PD-L1 inhibitor 2] + CCN1C(=O)N(c2c(F)c(OC)cc(OC)c2F)Cc2cnc3[nH]c(CN4CCOCC4)cc3c21 [pemigatinib] was run?
Answer: The cell viability was 1.

Question: With `Cc1ncc(-c2ccnc(Nc3ccc(S(C)(=O)=O)cc3)n2)n1C(C)C` + CCN1C(=O)N(c2c(F)c(OC)cc(OC)c2F)Cc2cnc3[nH]c(CN4CCOCC4)cc3c21 [pemigatinib] as the compound, how does the cell viability read?
Answer: Its cell viability is 1.

Question: Which cell viability does the source give for `OCc1c[nH]c2ccccc12` [Indole-3-carbinol] + CCN1C(=O)N(c2c(F)c(OC)cc(OC)c2F)Cc2cnc3[nH]c(CN4CCOCC4)cc3c21 [pemigatinib] here?
Answer: Its cell viability is 0.977.

Question: `N#CCNC(=O)c1ccc(-c2ccnc(Nc3ccc(N4CCOCC4)cc3)n2)cc1` + CCN1C(=O)N(c2c(F)c(OC)cc(OC)c2F)Cc2cnc3[nH]c(CN4CCOCC4)cc3c21 [pemigatinib] was tested. Which cell viability did it give?
Answer: Its cell viability is 0.903.

Question: Which cell viability does the source give for `CS(=O)(=O)OCCCCOS(C)(=O)=O` [Busulfan] + CCN1C(=O)N(c2c(F)c(OC)cc(OC)c2F)Cc2cnc3[nH]c(CN4CCOCC4)cc3c21 [pemigatinib] here?
Answer: Its cell viability is 0.982.
